Drawing on the supplement of paper PMC10126150, this text covers switch fluorescence ratio for 78 sequences.

Values marked as one replicate rest on one cluster of the flow cell; about a third of the high ones do not repeat.
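Also: ATP exposure 15 min at 22 °C before imaging.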

For the series, the system named is ATP. Kind of series: switch fluorescence ratio, 500 uM ATP over buffer (Cy3 cluster intensity, sum of 5 cycles each) (fold (ratio)); higher = stronger signal-on switching upon ATP binding; sequences stand for … in TCGTCGGCAGCGTCAGATGTGTATAAGAGACAGTTTTTTTTTTTTTTTTTTTTTTTTT…TC. Conditions: aptamer strand: ATP DNA aptamer (quencher-CACCTGGGGGAGTATTGCGGAGGAAGG + anchor), 100 nM annealed; ATP concentration: 500 uM; one replicate. Put shortly: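 The fluorescence ratio divides summed target-cycle Cy3 intensity by summed buffer-cycle Cy3 intensity for each cluster and is averaged per switch-domain sequence. Cy3-labelled switching-strand clusters on a modified Illumina MiSeq flow-cell were annealed to 100 nM quencher-labelled ATP aptamer, then imaged in selection buffer and again after 15 min with 500 uM ATP at 22 °C. Five such cycles were run, with NaOH stripping and re-annealing between them, and clusters outside 100-1000 RFU were excluded.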
Take ATGGATGGGA: the switch fluorescence ratio came to 0.961.
The same measure for GAATTCTAAC: 1.04; for TCCTGGTGGT: 1.08; for TGCACGCCAC: 2.11.
For TAGTTGCTT, the switch fluorescence ratio is 0.974.
For the sequence GTGTGAGGAC, the switch fluorescence ratio amounted to 1.02.
The same measure for AACCACCTTC: 1.3; for TCATATAGTA: 1.03.
As for TTGATCGTCA, the switch fluorescence ratio worked out at 1.03.
The same measure for GAGCCTGTTC: 0.961.
The same measure for GTGTCTCCTT: 0.997; for GAACGCGCGA: 0.975.
Take AAATCCCCGA: the switch fluorescence ratio was 0.946.
In the case of ACACCTTCCT, the switch fluorescence ratio is 2.86.
Consider CCAGAAGCGC, for which the switch fluorescence ratio is 0.985.
The same measure for GACGTTGATG: 0.962; for CTATGGAACC: 1.01; for TTTTGTAGG: 1.02.
In the case of AATTTGTCGG, the switch fluorescence ratio was 1.07.
Take CGGCAGCTT: the switch fluorescence ratio is 1.17.
Turning to ATTAGCCACG, the switch fluorescence ratio amounted to 1.04.
The same measure for TTTCCATTAG: 1.06; for GTTGTAACTT: 0.967.
The same measure for ATGTGTAAGA: 1.01; for AGATCCAGTG: 1.04.
With CCAATGGTTT, the switch fluorescence ratio is 0.991.
The same measure for CCAACAAGA: 1.27.
The same measure for ACTGTCCCAC: 1.05; for AAGTTTCGTT: 0.97.
As for CGCGGCACCA, the switch fluorescence ratio is 1.02.
The same measure for TGAAATTGAC: 1.12.
The same measure for AGAAGATTCG: 1.01.
Consider CTTACGGGGC, for which the switch fluorescence ratio worked out at 1.07.
For TTCTGCATTT, the switch fluorescence ratio was found to be 1.17.
The same measure for CATGTGAGGT: 0.992; for TGGCTGATGT: 0.979; for TTGAGGACAC: 0.975.
As to AAAGACTGTG, the switch fluorescence ratio was determined as 1.1.
Consider TTTTGTTCGT, for which the switch fluorescence ratio stood at 0.98.
TGTATAGGGA: the switch fluorescence ratio was 1.02.
The same measure for TAACCTTGCT: 2.43.
With ATCGGGCAGA, the switch fluorescence ratio was determined as 0.999.
The same measure for AACGGATGCA: 1.04.
As to CACGGAGGGA, the switch fluorescence ratio was found to be 1.12.
The same measure for TGGTAGTTCT: 0.96; for TAACTATTCA: 1.03; for TAATGTTGCG: 1.
The same measure for CCACGGGGGC: 1.04.
The same measure for GGTGCTACTT: 0.993.
CGGGGTGTCG: the switch fluorescence ratio turned out to be 1.15.
The same measure for AAAGGCTTCA: 1.19; for TAGATTTGCG: 0.982; for GCATCACCGA: 0.982.
The same measure for ACTGTGGTAC: 1.05; for AAGTCACATT: 1.03.
With CCGATCCATT, the switch fluorescence ratio is 1.33.
In the case of TATGCCCAT, the switch fluorescence ratio was 0.981.
GCAAAGAGTA: the switch fluorescence ratio worked out at 0.988.
Consider TATGTCTGTG, for which the switch fluorescence ratio turned out to be 1.02.
Take CACTTCCGCG: the switch fluorescence ratio amounted to 1.57.
Take TATTAGGCCC: the switch fluorescence ratio is 0.994.
The same measure for CCACCTAACT: 1.13.
The same measure for GCACCGTGTG: 0.989; for AGTGGACGT: 0.961; for TCCGTTTAGG: 1.01.
Take GCGAGACATA: the switch fluorescence ratio was determined as 1.02.
The same measure for CAAGATTGAA: 1.03; for GCTCTATCTG: 0.964; for TCGGAATTCT: 1.09.
The same measure for TCCACGTCAA: 3.5.
The same measure for GGGTCGAGAC: 1.1; for GGTGCGCGCT: 1.01; for ACGGTGAACT: 1.06.
For the sequence TCTCAACACG, the switch fluorescence ratio was determined as 1.
The same measure for CACTGTTGCG: 0.983; for TCGGTCGTGT: 0.985; for AACACTTATG: 1.03.
The same measure for TGAAGTAACC: 1.08.
